Results reported in PubChem BioAssay AID1768 (National Center for Advancing Translational Sciences (NCATS), 2009).
Screen size: about 270,000 compounds; about 620 (0.23%) were called active. The shares of active, inactive and inconclusive entries below differ from those in the screen. The call rests on the fitted dose curve; in most records, active means well fitted inhibition curve with a large enough effect in the polarisation, with a control signal flat (not every such curve was filed as active); inconclusive means small, poorly fitted or top-dose-only effect, or effect the other way, or a change in a side signal; inactive means no such curve, though single readings can be large or run the other way; the % refers to the polarisation. Potencies beside an inconclusive call are fits to weak or partial responses and may not hold up. A note “side channel” means that the fit belongs to a control or component signal, not to the main read-out.

biological target: Menin (Homo sapiens) (UniProt O00255); test: qHTS Assay for Inhibitors Targeting the Menin-MLL Interaction in MLL Related Leukemias: Competition With Texas Red Labeled MLL-derived Mutant Peptide; conditions: fluorescence polarization; FP activity change, negative = inhibition: at 61.6 µM (top of the series); on FP activity change, negative = inhibition: % of control where 0% means no effect
Sequence of UniProt O00255 (O00255 whole entry, looked up): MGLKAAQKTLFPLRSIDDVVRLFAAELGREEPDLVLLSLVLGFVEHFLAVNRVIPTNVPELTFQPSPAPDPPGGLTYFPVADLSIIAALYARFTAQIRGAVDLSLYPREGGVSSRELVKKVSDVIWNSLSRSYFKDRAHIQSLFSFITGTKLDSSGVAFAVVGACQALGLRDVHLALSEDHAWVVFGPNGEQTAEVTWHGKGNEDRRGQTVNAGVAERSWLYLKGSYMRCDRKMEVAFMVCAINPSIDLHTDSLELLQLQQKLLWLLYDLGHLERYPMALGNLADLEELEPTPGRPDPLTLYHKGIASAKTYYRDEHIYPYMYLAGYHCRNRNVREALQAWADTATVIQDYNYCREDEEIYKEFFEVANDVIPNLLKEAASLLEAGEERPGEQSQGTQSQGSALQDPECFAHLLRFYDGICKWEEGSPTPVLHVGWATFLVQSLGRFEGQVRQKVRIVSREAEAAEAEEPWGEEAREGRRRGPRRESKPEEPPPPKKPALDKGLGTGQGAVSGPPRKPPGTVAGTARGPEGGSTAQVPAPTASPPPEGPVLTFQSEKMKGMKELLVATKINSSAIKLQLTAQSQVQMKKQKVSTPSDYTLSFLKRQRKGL
Potency means the concentration at half of the fitted maximal effect; tags describe the fitted curve by direction and shape or compound fluorescence and quenching.

Row | SMILES | Potency | FP activity change, negative = inhibition
1 | CC(CCc1ccccc1)NC(=O)COC(=O)c1cc(NS(=O)(=O)c2ccc(Cl)c([N+](=O)[O-])c2)ccc1O (stereo unspecified) | inconclusive: 15.8 µM [quencher, side channel, partial curve] | 
2 | COc1ccccc1NC(=O)c1cnc2n(c1=O)CCS2 | inconclusive: 35.5 µM [inhibitor, single point] | 
3 | COC(=O)c1sc(NC(=O)COc2ccccc2C)nc1C | inconclusive: 35.5 µM [inhibitor, single point] | 
4 | CCOc1ccccc1Nc1nnc(SCC(=O)Nc2nc(-c3ccc(OC)cc3)cs2)s1 | inconclusive: 17.8 µM [fluorescent, side channel, partial curve, poor fit] | 
5 | Cc1c(C)n(C)c2ccc(C(=O)N3CCN(c4ccccn4)CC3)cc12 | inconclusive: 20 µM [fluorescent, side channel, partial curve] | 
6 | COC(=O)c1ccc(-c2noc(CN(Cc3ccncc3)CC3CCCO3)n2)cc1 (stereo unspecified) | inconclusive: 22.4 µM [quencher, side channel, partial curve] | 
7 | CCOC(=O)C1CCCN(C2CC(=O)N(c3ccc(C(C)C)cc3)C2=O)C1 (stereo unspecified) | inconclusive: 25.1 µM [inhibitor, single point] | 
8 | Cc1cc(C)c2c(SC(C)C)nc(N)nc2n1 | inconclusive: 39.8 µM [fluorescent, side channel, partial curve] | 
9 | Cn1c(=O)n(C)c2cc(NC(=O)c3ccccc3[N+](=O)[O-])c(Br)cc21 |  | inactive: -5.32%
10 | Cc1nn(-c2ccccc2)c(N)c1N=Nc1ccc2ccccc2c1 | inconclusive: 17.8 µM [quencher, side channel, partial curve] | 
11 | O=C(COC(=O)C1CCN(S(=O)(=O)c2cccs2)CC1)c1cc2ccccc2o1 | inconclusive: 7.08 µM [quencher, side channel, full curve] | 
12 | CCOc1ccc(NC(=O)NN2C(C)CCCC2C)cc1 (stereo unspecified) | inconclusive: 0.708 µM [inhibitor, full curve, poor fit] | 
13 | C/C(=N\Nc1ccc([N+](=O)[O-])cc1[N+](=O)[O-])c1cccnc1 | inconclusive: 12.6 µM [inhibitor, partial curve] | 
14 | CCC(C)CC(C)CC(C)C(=O)/C=C(/O)C(C)CC(C)C/C=C/C(C)C(O)C(C)C(O)CC1CCC(C)(C)O1 (stereo unspecified) |  | inactive: 8.26%
15 | CC(=O)c1cccc(N=Nc2c(C)[nH]c3ccccc23)c1 | inconclusive: 14.1 µM [quencher, side channel, partial curve] | 
16 | CC(=O)c1sc(N/N=C/c2ccc(C(C)C)cc2)nc1C | inconclusive: 12.6 µM [quencher, side channel, partial curve] | 
17 | CC1=NN(c2ccccc2)C(=O)C1 | inconclusive: 35.5 µM [quencher, side channel, single point] | 
18 | COc1ccc2c(c1)OC(=O)CC2c1ccc2c(c1)OCO2 (stereo unspecified) | inconclusive: 31.6 µM [quencher, side channel, single point] | 

Row | SMILES | Potency | FP activity change, negative = inhibition
19 | COc1ccc(NC(=O)Cc2nnc(SCC(=O)Nc3cc(C)ccc3OC)n2C)cc1 |  | inactive: -17.7%
20 | O=c1c2ccccc2nc2c3ccccc3c(NCCO)nn12 | inconclusive: 22.4 µM [inhibitor, single point] | 
21 | CC(C)C[C@H](NC(=O)OC(C)(C)C)c1nnc(SCc2ccccc2)o1 | inconclusive: 15.8 µM [fluorescent, side channel, partial curve] | 
22 | CCCCN=C(NNc1ccc(Br)cc1)C(=O)OCC | inconclusive: 12.6 µM [quencher, side channel, partial curve] | 
23 | CC(CNC(=O)CN1C(=O)CCSc2ccccc21)c1ccccc1 (stereo unspecified) | inconclusive: 25.1 µM [fluorescent, side channel, partial curve] | 
24 | NCCCNCCCCN(CCCN)/[N+]([O-])=N/O | inconclusive: 39.8 µM [inhibitor, single point] | 
25 | Cc1[nH]n(-c2ccccc2)c(=O)c1C(=O)Nc1ccccc1 | inconclusive: 22.4 µM [quencher, side channel, single point] | 
26 | COc1ccc(-n2nc3cc(C)c(N)cc3n2)cc1Cl | inconclusive: 20 µM [quencher, side channel, partial curve] | 
27 | Nc1nonc1-n1nnc(C(=O)N/N=C/c2ccncc2)c1CSc1ccc(Cl)cc1 | inconclusive: 39.8 µM [inhibitor, single point] | 
28 | CC1(c2ccc([N+](=O)[O-])cc2)Nc2ccccc2S1 (stereo unspecified) | inconclusive: 17.8 µM [quencher, side channel, partial curve] | 
29 | COC(=O)c1ccc(OC(=O)c2ccc(OCc3c(C)noc3C)c(OC)c2)cc1 | inconclusive: 8.91 µM [inhibitor, single point] | 
30 | N#C/C(=C\c1c[nH]c2ccccc12)C(=O)c1ccc(O)c(O)c1 | inconclusive: 15.8 µM [quencher, side channel, partial curve] | 
31 | O=C(NCc1ccccc1)c1ccc2nc(-c3ccco3)c(-c3ccco3)nc2c1 | inconclusive: 12.6 µM [quencher, side channel, partial curve] | 
32 | CCOC(=O)c1cnc2cc(F)c(F)cc2c1N1CCN(C)CC1 | inconclusive: 22.4 µM [inhibitor, single point] | 
33 | O=C(Nc1cccc(S(=O)(=O)Nc2ccccc2Cl)c1)c1ccc(N2CCCC2)c([N+](=O)[O-])c1 | inconclusive: 5.01 µM [quencher, side channel, full curve] | 
34 | COc1cccc(N(C(=O)c2ccco2)c2nc(-c3sc(NC(=O)c4ccco4)nc3C)cs2)c1 | inconclusive: 10 µM [quencher, side channel, partial curve] | 
35 | COc1ccc(C(=O)Nc2ccc(N3CCCC3)cc2)cc1Br | inconclusive: 25.1 µM [quencher, side channel, partial curve] | 
36 | Cc1ccc(S(=O)(=O)N2CCN(S(=O)(=O)N(C)C)CC2)cc1 | inconclusive: 44.7 µM [inhibitor, partial curve, poor fit] | 
